# Source: patent publication US20190328784A1, “CHIMERIC ANTIGEN RECEPTORS (CARS) SPECIFIC FOR MUC1 AND METHODS FOR THEIR USE” (Poseida Therapeutics, Inc., priority 2016, published 2019)
# B1: M1A-LH: MUC1 scFv CAR; single chain antibody SEQ ID NO: 31 (protein)
# scFv: DILLTQSPAILSVSPGERVSFS[left out - about 80 residues]FGAGTKLELKGGGGSGGGGSGGGGSQVQLQQSGAELVRPGSSVKISCKTSGYAFSNFWMNWVKQRPGQGLEWIGQIYPGDGDTNYNGKFKGKATLTADKSSSTAYMQLSSLTSEASAVYFCARSYYRSAWFAYWGQGTLVSVSA
# modifications: left off: a dimerising Fc or GST
# What was measured:
# [1] = system: MUC1 expressed on activated T cells; assay: MUC1-scFv CAR function/epitope assay (degranulation, CD107a+ cells); assay type: cell-based, human
# Method: (§1) The results of a functional assay are provided in the graph wherein MUC1-C scFv-CAR function was measured by the extent of degranulation of the cells in each condition contacted with the MUC1-scFv along the X-axis. Degranulation was measured as the percentage of total cells that were CD107a-positive (CD107a+). The chart summarizes the relative activity of each MUC1-C scFv-CAR during the functional assay.
# As an initial study, MUC1 expression was assessed in different cell types (see FIG. 13). Cells included in this study: K562 cells (immortalized human chronic myelogenous leukemia cells), Raji cells (human hematopoietic cell line used as a model of cancer), Raji cells modified to express MUC1-C, activated T cells and RPMI8226 cells (human peripheral blood B cell plasmacytoma/myeloma cell line). MUC1 expression in each of these cells was assessed by staining with an anti-MUC1-N antibody.
# full length MUC1 = molecular target: T1, full length MUC1 (Homo sapiens, UniProt P15941); assay: as above; assay type: cell-based; conditions: cells expressing full-length MUC1
# T1 construct: expressed in transfected cells; host or cells: K562, Raji and RPMI8226 cells
# Method: FIG. 14 is a graph depicting a MUC1-scFv CAR function assay. […] MUC1-scFv function is measured by the extent of degranulation of the cells in each condition contacted with the MUC1-scFv along the X-axis. Degranulation was measured as the percentage of total cells that were CD107a-positive (CD107a+).
# as §1
# The function of each of the MUC1-scFv CARs described in this example was assayed in K562 cells, Raji cells and RPMI8226 cells (“8226”) cells in either unmodified conditions or following transfection with MUC1 constructs (either full-length or MUC1-C) to generate modified K562 cells, modified Raji cells and modified 8226 cells. Function of each of the MUC1-scFv CARs was measured by the CAR's ability to degranulate each cell type. Degranulation was measured by the percent of total cells that express […] (percentage of […] cells).
# The F1C-HL, M1A-LH and K2B-HL MUC1-scFv CARs were further tested to determine epitope binding.
# T1 sequence (P15941 24-1255): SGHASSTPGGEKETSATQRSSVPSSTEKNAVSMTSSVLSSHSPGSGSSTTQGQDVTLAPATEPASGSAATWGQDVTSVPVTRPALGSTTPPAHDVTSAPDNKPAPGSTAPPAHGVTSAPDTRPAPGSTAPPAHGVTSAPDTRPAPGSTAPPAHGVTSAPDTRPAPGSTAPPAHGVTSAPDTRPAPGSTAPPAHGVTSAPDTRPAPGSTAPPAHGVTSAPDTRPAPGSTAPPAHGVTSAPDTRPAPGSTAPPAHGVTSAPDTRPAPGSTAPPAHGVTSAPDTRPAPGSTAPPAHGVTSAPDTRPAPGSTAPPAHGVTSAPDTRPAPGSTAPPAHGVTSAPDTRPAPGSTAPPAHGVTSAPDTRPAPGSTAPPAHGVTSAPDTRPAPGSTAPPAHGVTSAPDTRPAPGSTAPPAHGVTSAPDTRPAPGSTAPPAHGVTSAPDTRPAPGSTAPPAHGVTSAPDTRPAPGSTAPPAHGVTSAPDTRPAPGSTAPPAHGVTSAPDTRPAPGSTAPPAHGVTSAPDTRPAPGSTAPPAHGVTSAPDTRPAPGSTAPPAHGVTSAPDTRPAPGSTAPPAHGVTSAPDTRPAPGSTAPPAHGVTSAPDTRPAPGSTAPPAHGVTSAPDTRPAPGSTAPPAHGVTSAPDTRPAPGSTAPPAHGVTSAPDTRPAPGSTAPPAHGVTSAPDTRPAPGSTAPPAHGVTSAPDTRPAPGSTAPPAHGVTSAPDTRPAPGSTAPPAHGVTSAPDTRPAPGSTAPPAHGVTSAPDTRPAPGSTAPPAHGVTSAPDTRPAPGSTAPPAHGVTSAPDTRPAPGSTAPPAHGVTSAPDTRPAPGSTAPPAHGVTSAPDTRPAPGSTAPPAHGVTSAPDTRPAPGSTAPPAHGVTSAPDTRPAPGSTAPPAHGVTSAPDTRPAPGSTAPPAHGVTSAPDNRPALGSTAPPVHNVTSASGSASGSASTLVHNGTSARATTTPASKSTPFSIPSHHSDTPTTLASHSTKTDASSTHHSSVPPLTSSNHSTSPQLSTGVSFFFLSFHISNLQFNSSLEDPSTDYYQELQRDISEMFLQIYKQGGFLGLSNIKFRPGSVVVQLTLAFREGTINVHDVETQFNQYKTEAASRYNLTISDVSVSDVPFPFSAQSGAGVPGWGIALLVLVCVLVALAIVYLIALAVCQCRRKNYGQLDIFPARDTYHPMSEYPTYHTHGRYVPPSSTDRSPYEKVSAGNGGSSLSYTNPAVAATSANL
molecule,measurement,setting,value
B1,CAR reactivity (degranulation),[1],to a lesser extent to that expressed on T cells
same,CAR reactivity / binding (degranulation),full length MUC1,reacts against full length MUC1; also recorded: specifically binds

# Entries after “also recorded” stand apart in the source; their conditions may differ.
